Assay results: the supplement of paper PMC3334620
The full ranking holds about 33,000 sequences; the median of “E-score (-0.5 to 0.5)” is about -0.035, and the highest 2% start at about 0.35. The list shows a part of the results.

Each sequence was assayed against T1, Pdr3 (UniProt P33200) (assay: PBM E-score (8-mer binding enrichment) (E-score (-0.5 to 0.5)); higher = stronger / more preferred TF binding; most listed sequences are background and not binding sites). Conditions: protein concentration: 200 nM; construct: GST-full length.
T1 sequence: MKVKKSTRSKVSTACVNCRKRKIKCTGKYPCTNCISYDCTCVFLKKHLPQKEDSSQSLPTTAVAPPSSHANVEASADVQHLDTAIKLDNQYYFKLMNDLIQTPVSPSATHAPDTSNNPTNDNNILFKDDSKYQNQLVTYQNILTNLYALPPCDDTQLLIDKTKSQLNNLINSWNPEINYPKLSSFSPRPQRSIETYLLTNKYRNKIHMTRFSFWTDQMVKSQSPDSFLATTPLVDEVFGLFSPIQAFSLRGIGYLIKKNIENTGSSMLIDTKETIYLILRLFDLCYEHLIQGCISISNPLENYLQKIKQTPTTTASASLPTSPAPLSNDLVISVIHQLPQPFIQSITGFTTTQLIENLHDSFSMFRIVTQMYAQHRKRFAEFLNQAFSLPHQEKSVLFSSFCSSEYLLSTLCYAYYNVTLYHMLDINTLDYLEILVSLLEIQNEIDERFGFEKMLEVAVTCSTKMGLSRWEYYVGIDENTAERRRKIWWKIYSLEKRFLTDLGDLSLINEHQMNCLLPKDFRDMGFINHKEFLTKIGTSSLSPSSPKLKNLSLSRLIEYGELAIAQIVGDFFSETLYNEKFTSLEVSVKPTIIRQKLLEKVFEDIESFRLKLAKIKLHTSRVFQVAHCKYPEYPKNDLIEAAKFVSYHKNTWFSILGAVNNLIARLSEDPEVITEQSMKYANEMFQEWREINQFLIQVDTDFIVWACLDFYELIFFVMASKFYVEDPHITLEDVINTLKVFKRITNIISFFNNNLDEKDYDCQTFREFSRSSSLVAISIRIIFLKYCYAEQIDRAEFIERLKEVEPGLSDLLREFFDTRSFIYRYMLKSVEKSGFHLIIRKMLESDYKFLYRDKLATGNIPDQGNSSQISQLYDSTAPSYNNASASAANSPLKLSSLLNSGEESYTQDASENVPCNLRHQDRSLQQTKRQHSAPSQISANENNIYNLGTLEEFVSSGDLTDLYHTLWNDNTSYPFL
Method in brief: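 Full-length yeast transcription factors or their DNA-binding domains, GST-tagged and expressed with PURExpress, were applied at about 100-200 nM to universal all-10-mer Agilent arrays. These arrays had been made double-stranded by primer extension on fresh or once-stripped slides. Detection used fluorescent anti-GST, normalisation used masliner, and E-scores for ungapped eight-base words pooled with reverse complements came from the Universal PBM Analysis Suite.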

Sequence | PBM E-score
CACAAGCG | -0.129
CGGTTGCC | 0.205
CGGAATAG | 0.418
TATCTTCA | -0.0543
CAGTGTAC | -0.0855
TAACAATA | 0.0358
AATCAATG | 0.125
GGTGCTAA | -0.0417
GTGTGAGA | -0.0859
AATCTACG | 0.024
CACAACTA | 0.154
ATGGTTGA | 0.0836
ACGGCCAC | 0.126
CGCGTGGC | 0.00171
AATTCAGG | 0.143
CTCACAAA | -0.0844
AATGTTCA | -0.052
CAAGAAGG | -0.0899
GTGGACCA | -0.0263
CGGGGGCC | 0.142
CACTCTGC | -0.0918
AGACTGAT | -0.197
GGTCGGTA | 0.0234
CGTCAAGC | -0.118

Sequence | PBM E-score
GTCCGTGA | 0.276
AGGACTAG | -0.143
GATGCACC | -0.0532
GATTGCCC | -0.0857
CGTTTGTC | 0.032
CTAACCAC | -0.258
ACTGCTTC | 0.013
TATCGGAA | 0.419
GTCGCTTA | 0.0381
GTGCCCTA | -0.236
AATCCCAG | -0.0498
CTAGCGAC | -0.122
AGTCCATC | 0.0496
GAGTACGA | 0.00886
GCCATGGA | -0.0113
TCGGCTCA | 0.0148
GCAGTATA | 0.0934
CGTCGCGA | 0.207
ACCTGGCT | -0.183
AACATGAC | -0.0926
ATCGCGGG | 0.186
AGTCTGAG | -0.351
AGTTAAGG | -0.234
ACATAGCA | -0.0892

Sequence | PBM E-score
ACTGCTCG | 0.0116
CTATTTAA | 0.156
TAGGAATA | -0.119
GTCTTTAA | -0.2
CCGTATAG | -0.13
CTACGTGC | -0.18
ATTTTATG | 0.0598
CCAGTACG | -0.132
GCAGAAGA | -0.161
AGACATAA | -0.0309
CGGGCCGA | 0.208
CCGAATGC | 0.234
TCCTAGCA | -0.24
TTCAAGAA | -0.0654
GGTTGTAA | -0.263
AGTCAGGA | -0.142
AGGGAAGC | -0.0866
TCGAGAAA | -0.197
GCGGGGAA | 0.226
CTGCCAAG | -0.252
AGAAAAAG | -0.0302
GAAGGCCC | -0.0246
CCTTCCCG | 0.208
CGTCTGAA | -0.159

Sequence | PBM E-score
AATTTTAA | -0.0299
GGTTCGCA | -0.0981
CTGGCTTA | -0.249
CTGTACCC | 0.0892
GGTAAAGA | -0.0497
AATGAGTA | 0.149
GCGGTGCA | -0.177
ATAGCCAA | 0.128
ATTAAATG | 0.139
AACTGGGT | -0.0669
AAATGCCC | -0.0768
ACCTTCCG | 0.394
ACGATTTG | -0.0965
CTATTAGC | 0.02
CCAAGTTA | -0.117
TTCCGAAA | 0.41
ATTTAATC | 0.235
GGAATAAA | 0.194
CGGACCTA | 0.25
GGGTCCAA | -0.0383
ATCATAAA | -0.0535
TAAGTACA | -0.172
